Consider 115 sequences from the BET-seq Pho4 binding data (Le et al. 2018).

Some of the results follow. Values were computed here from the reads of four pooled replicates and scatter widely.

The target in this assay is T1, Pho4 (S. cerevisiae) (UniProt P07270).
T1 sequence: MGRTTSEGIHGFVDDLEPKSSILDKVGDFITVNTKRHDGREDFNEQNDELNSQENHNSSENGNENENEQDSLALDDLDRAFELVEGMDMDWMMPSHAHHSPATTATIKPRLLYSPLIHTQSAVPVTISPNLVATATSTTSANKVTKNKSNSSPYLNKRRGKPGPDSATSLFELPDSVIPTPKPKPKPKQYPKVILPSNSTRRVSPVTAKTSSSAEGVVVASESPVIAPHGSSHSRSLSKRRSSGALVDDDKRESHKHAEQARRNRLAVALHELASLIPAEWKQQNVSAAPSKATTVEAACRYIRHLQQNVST
Kind of assay: relative binding free energy (BET-seq); higher = weaker binding. The note with it: reference: library average.
As to CTAGACACGTGGTTGT, the “relative binding free energy” value is -0.05 kcal/mol. As to ATATTCACGTGGAGGA, the “relative binding free energy” value worked out at 0.03 kcal/mol.

For the sequence TGGCTCACGTGTGTTC, the “relative binding free energy” value turned out to be 0.32 kcal/mol. In the case of GTTTCCACGTGGATGA, the “relative binding free energy” value stood at 0.2 kcal/mol. In the case of CTGAGCACGTGCGGTG, the “relative binding free energy” value is -0.16 kcal/mol. With CATGGCACGTGTAGGT the figure was -0.08 kcal/mol. As to TTGTGCACGTGTATCT, the “relative binding free energy” value is -0.13 kcal/mol.

Consider AAGTACACGTGGGTGA, for which the “relative binding free energy” value is -0.06 kcal/mol. Regarding TGGATCACGTGGTACT, the “relative binding free energy” value stood at 0.12 kcal/mol. AAGTGCACGTGGGGTA: the “relative binding free energy” value was -0.18 kcal/mol. Take GTTTACACGTGTAGCT: the “relative binding free energy” value came to 0.14 kcal/mol. The figure for TGTGTCACGTGAGTCA is 0.24 kcal/mol. Consider CACGGCACGTGGGTGG, for which the “relative binding free energy” value was -0.2 kcal/mol. Regarding GGGTTCACGTGTTGGG, the “relative binding free energy” value amounted to 0.43 kcal/mol. As to TGTAACACGTGTTCGG, the “relative binding free energy” value is -0.1 kcal/mol.

Regarding TGTTACACGTGCTATG, the “relative binding free energy” value was -0.01 kcal/mol.

On to GTGTACACGTGATGCT, for which the “relative binding free energy” value was determined as 0.15 kcal/mol. Take ATTTTCACGTGTGCCA: the “relative binding free energy” value is 0.26 kcal/mol.

As to TATGACACGTGAATGG, the “relative binding free energy” value was determined as 0.3 kcal/mol. In the case of TTTTACACGTGTTAGG, the “relative binding free energy” value is 0.06 kcal/mol. As to TGGATCACGTGTAGTC, the “relative binding free energy” value was 0.12 kcal/mol. Take TGAGGCACGTGTCGTG: the “relative binding free energy” value was 0.04 kcal/mol. Consider TTATGCACGTGTTGTT, for which the “relative binding free energy” value is -0.03 kcal/mol. Consider GTTAGCACGTGAAGTA, for which the “relative binding free energy” value came to 0.35 kcal/mol. As for GTATGCACGTGAGAGA, the “relative binding free energy” value is 0.19 kcal/mol.

For the sequence ATACGCACGTGAGTGT, the “relative binding free energy” value was found to be 0.02 kcal/mol. Take AATCTCACGTGGAGGT: the “relative binding free energy” value worked out at 0.14 kcal/mol. With GTGTTCACGTGCAGAA, the “relative binding free energy” value was 0.33 kcal/mol.

TGGCCCACGTGTTTGG: the “relative binding free energy” value was -0.06 kcal/mol.

As for GTACGCACGTGAGAGT, the “relative binding free energy” value turned out to be 0.4 kcal/mol. With ATTAACACGTGTCTGG the figure was -0.02 kcal/mol; with TACTTCACGTGGTTTA, 0.2 kcal/mol.

TACGCCACGTGGGTGG: the “relative binding free energy” value was -0.17 kcal/mol. The figure for AGCAACACGTGTGTTT is 0.05 kcal/mol. On to ATAGTCACGTGCACGG, for which the “relative binding free energy” value worked out at 0.19 kcal/mol. The figure for GCTGTCACGTGTTGTG is 0.09 kcal/mol. With ATGTTCACGTGGATGG the figure was 0.12 kcal/mol; with TTTGACACGTGAGGAA, 0.12 kcal/mol. The figure for GTGCTCACGTGTGTGG is 0.25 kcal/mol; for TGACGCACGTGGCTTG it is -0.1 kcal/mol; for TTGGACACGTGCTGGT it is 0.03 kcal/mol. As for TGGGGCACGTGCTGTT, the “relative binding free energy” value is -0.25 kcal/mol.

For the sequence TGTTGCACGTGGCAGT, the “relative binding free energy” value was -0.09 kcal/mol. Take TGTTGCACGTGGGAAC: the “relative binding free energy” value was found to be 0 kcal/mol.

For the sequence GGAAGCACGTGGGCTG, the “relative binding free energy” value is -0.14 kcal/mol. Regarding GGGCGCACGTGAGTGT, the “relative binding free energy” value came to 0.09 kcal/mol. For the sequence GGTTGCACGTGCTGGG, the “relative binding free energy” value was determined as 0 kcal/mol.

TTATACACGTGAAGAT: the “relative binding free energy” value was determined as 0.33 kcal/mol.

For the sequence TGGTCCACGTGTGGAG, the “relative binding free energy” value was -0.14 kcal/mol. With ATTATCACGTGGACGG the figure was 0.08 kcal/mol.

As to GATTGCACGTGCTGTT, the “relative binding free energy” value amounted to 0.02 kcal/mol. Take CTGTGCACGTGGGGTT: the “relative binding free energy” value was -0.23 kcal/mol. The figure for GGGTGCACGTGGGTAC is -0.13 kcal/mol; for TTACGCACGTGGTTGG it is -0.1 kcal/mol. As to CTCGACACGTGTTGGG, the “relative binding free energy” value worked out at 0.07 kcal/mol.

In the case of TTGTCCACGTGTATTT, the “relative binding free energy” value was 0.13 kcal/mol. Regarding ATGATCACGTGGTTAG, the “relative binding free energy” value was -0.06 kcal/mol. On to TGAAACACGTGGGTGC, for which the “relative binding free energy” value is -0.16 kcal/mol.

On to TATTCCACGTGAGTGT, for which the “relative binding free energy” value was determined as 0.32 kcal/mol. Take CAAGTCACGTGGGTCG: the “relative binding free energy” value came out at 0.01 kcal/mol.

For TGTGGCACGTGCAGGC, the “relative binding free energy” value is -0.06 kcal/mol. With GAATTCACGTGGGTTA, the “relative binding free energy” value came out at 0.09 kcal/mol. As for TAATGCACGTGGTGGG, the “relative binding free energy” value is -0.09 kcal/mol. As for ATAGGCACGTGAGGTT, the “relative binding free energy” value was -0.04 kcal/mol. On to GGGGCCACGTGATTTG, for which the “relative binding free energy” value came to 0.16 kcal/mol. The figure for TCTTACACGTGGGAGT is 0.15 kcal/mol; for GGAAGCACGTGAGTAT it is 0.05 kcal/mol; for AGAGGCACGTGCTGGT it is -0.21 kcal/mol. On to TATAACACGTGGTAGT, for which the “relative binding free energy” value was -0.16 kcal/mol. Turning to TGACACACGTGGTATT, the “relative binding free energy” value is -0.01 kcal/mol. With GTATTCACGTGGCGGC, the “relative binding free energy” value is 0.27 kcal/mol. For the sequence TCGGGCACGTGATGGA, the “relative binding free energy” value amounted to 0.03 kcal/mol. With ATGTGCACGTGGCGCT the figure was -0.08 kcal/mol; with ATGATCACGTGTTGCG, 0.12 kcal/mol; with GAATTCACGTGGGGTT, 0.21 kcal/mol.

For the sequence TGCGTCACGTGCGGGT, the “relative binding free energy” value was -0.02 kcal/mol.

Consider TGAGTCACGTGTTGAA, for which the “relative binding free energy” value was 0.05 kcal/mol. TGTAGCACGTGGGTTT: the “relative binding free energy” value is -0.17 kcal/mol.

As to CTTGGCACGTGTTTCA, the “relative binding free energy” value is -0.08 kcal/mol. With TAGGTCACGTGCAGGA the figure was 0.17 kcal/mol; with GGAGACACGTGGGTGG, -0.06 kcal/mol. For TATTTCACGTGATAAA, the “relative binding free energy” value was 0.22 kcal/mol. Consider TTTCTCACGTGTATTA, for which the “relative binding free energy” value was determined as 0.19 kcal/mol. With ATTGACACGTGGGTGC, the “relative binding free energy” value is -0.15 kcal/mol.

AGCTTCACGTGCTTTG: the “relative binding free energy” value stood at 0.26 kcal/mol. GGTCTCACGTGTATTA: the “relative binding free energy” value stood at 0.25 kcal/mol.

With GTGGTCACGTGTTTCA, the “relative binding free energy” value was found to be 0.24 kcal/mol. The figure for TTGGGCACGTGTGTTG is -0.15 kcal/mol.

AGAGTCACGTGGTGAC: the “relative binding free energy” value stood at 0.07 kcal/mol. With TGTAGCACGTGACCGT, the “relative binding free energy” value worked out at 0.1 kcal/mol. On to CTTTGCACGTGTGGGA, for which the “relative binding free energy” value stood at 0.16 kcal/mol. Consider CTGGTCACGTGTGTTT, for which the “relative binding free energy” value was 0.23 kcal/mol. Take TCTGACACGTGGGTTT: the “relative binding free energy” value is -0.02 kcal/mol. Consider GAAAGCACGTGGTCGG, for which the “relative binding free energy” value was -0.18 kcal/mol.

As to GCCGTCACGTGGTGTA, the “relative binding free energy” value was 0.16 kcal/mol. Regarding AATATCACGTGGGGGA, the “relative binding free energy” value was found to be 0 kcal/mol. For the sequence TTGCTCACGTGTTCGA, the “relative binding free energy” value was determined as 0.35 kcal/mol.

As to CGTGTCACGTGTCGGA, the “relative binding free energy” value was 0.2 kcal/mol. Regarding TGTGGCACGTGCGGGT, the “relative binding free energy” value is -0.15 kcal/mol. With GTTTGCACGTGACTAG, the “relative binding free energy” value was 0.22 kcal/mol. On to TCAATCACGTGTATGT, for which the “relative binding free energy” value came to 0.21 kcal/mol.

For the sequence TTTAGCACGTGCGTTG, the “relative binding free energy” value is -0.12 kcal/mol. With AGGATCACGTGGTACG the figure was 0.22 kcal/mol; with AAAGGCACGTGTGTCA, -0.02 kcal/mol.

GAGGGCACGTGGCTTT: the “relative binding free energy” value is -0.05 kcal/mol. With ATAGGCACGTGAATAT the figure was 0.1 kcal/mol; with CAAAACACGTGGTTGT, 0.11 kcal/mol; with TTATTCACGTGTGCAT, 0.35 kcal/mol. With CGTCGCACGTGGGCGG the figure was -0.23 kcal/mol; with GCATGCACGTGTGTTA, 0.02 kcal/mol; with CGGTTCACGTGGCTTA, 0.31 kcal/mol.

For GGGATCACGTGGAATA, the “relative binding free energy” value is 0.2 kcal/mol. With TTCGTCACGTGTGGAA, the “relative binding free energy” value amounted to 0.11 kcal/mol. The figure for ATTGTCACGTGGAGGG is 0.15 kcal/mol; for TTAAGCACGTGTAAAA it is 0.11 kcal/mol.
